Test system: PSMA^+ PC3 PIP and PSMA^− PC3 flu xenografts
Experiment: Small animal PET imaging
Format: in vivo, NOD-SCID mice
Details: for PET: PSMA+ PC3 PIP tumor uptake (in words): as early as 30 min post-injection

| Structure (SMILES) | PET: PSMA+ PC3 PIP tumor uptake (in words) | PET: binding to PSMA-negative PC3-flu tumor (in words) (mouse, in vivo) | PET: uptake in normal tissues (in words) (mouse, in vivo) |
| --- | --- | --- | --- |
| O=C(O)CC[C@H](NC(=O)N[C@@H](CCCCNC(=O)CCCCCCC(=O)N[C@@H](CCCCNC(=O)CCc1cn(CC[18F])nn1)C(=O)O)C(=O)O)C(=O)O [[^18F]YC-71] | Intense PSMA^+ PC3 PIP tumor uptake | no significant binding | – |
| O=C(O)CC[C@H](NC(=O)N[C@@H](CCCCNC(=O)CCc1cn(CC[18F])nn1)C(=O)O)C(=O)O [[^18F]YC-88, 2-[3-(1-carboxy-5-{3-[1-(2-[^18F]fluoroethyl)-1H-1,2,3-triazol-yl]propanamido}pentyl)ureido]-pentanedioic acid] | Intense PSMA^+ PC3 PIP tumor uptake | – | extremely low uptake |
